# According to PMC4336329 (PLoS ONE, 2015):
# Hit rate of the full screen: of about 310,000 compounds, about 14,000 (4.5%) showed an effect of 50% or more. Effects have a minus sign here. The list shows a part of the results.
# Target: human ether-à-go-go-related gene (hERG) potassium channel (human, UniProt Q12809)
# Assay: primary screen, population patch clamp on CHO cells stably expressing hERG
# 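Note: peak tail current of the secondary pulse compared with the same well before compound.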
# Chain of human ether-à-go-go-related gene (hERG) potassium channel (Q12809 whole entry, looked up): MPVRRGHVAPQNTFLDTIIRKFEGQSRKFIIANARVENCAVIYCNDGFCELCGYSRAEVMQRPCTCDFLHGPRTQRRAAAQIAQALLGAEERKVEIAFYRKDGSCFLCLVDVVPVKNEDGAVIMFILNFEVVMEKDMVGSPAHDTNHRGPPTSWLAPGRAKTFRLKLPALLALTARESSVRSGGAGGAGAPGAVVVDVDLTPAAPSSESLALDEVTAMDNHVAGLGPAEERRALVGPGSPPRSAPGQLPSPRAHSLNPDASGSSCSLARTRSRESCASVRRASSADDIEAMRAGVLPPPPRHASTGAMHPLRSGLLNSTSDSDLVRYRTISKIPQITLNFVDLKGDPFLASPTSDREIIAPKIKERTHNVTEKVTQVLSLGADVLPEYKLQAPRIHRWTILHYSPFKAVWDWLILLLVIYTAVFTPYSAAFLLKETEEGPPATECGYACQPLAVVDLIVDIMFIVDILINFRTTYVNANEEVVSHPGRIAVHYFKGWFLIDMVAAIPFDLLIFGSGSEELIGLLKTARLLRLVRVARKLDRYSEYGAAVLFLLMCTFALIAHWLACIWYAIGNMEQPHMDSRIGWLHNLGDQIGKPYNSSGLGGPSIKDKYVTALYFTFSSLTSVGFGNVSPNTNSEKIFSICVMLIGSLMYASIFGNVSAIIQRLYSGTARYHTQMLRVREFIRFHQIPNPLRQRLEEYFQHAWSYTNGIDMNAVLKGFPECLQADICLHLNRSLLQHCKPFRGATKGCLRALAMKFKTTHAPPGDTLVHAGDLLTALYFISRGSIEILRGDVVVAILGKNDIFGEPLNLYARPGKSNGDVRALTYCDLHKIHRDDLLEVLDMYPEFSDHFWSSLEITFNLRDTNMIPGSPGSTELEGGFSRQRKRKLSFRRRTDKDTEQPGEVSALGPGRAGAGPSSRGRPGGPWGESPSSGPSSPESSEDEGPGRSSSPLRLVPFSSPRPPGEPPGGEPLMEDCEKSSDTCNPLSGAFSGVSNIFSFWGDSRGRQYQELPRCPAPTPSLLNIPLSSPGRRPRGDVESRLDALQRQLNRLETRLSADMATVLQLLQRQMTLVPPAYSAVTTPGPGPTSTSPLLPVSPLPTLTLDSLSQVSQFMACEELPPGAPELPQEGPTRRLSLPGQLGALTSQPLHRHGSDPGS
row,Compound,"hERG current change (%, negative = inhibition) at 10uM"
1,O=C(c1ccc2nc(Cc3ccccc3F)oc2c1)N1CCCC1,14%
2,CCc1ccc(CN(C)C(=O)c2cc(=O)c3ccccc3o2)cc1,-66.4%
3,COc1ccc(C(=O)Nc2ccc(CN3CCS(=O)(=O)CC3)cc2)cc1,15%
4,CC(=O)NN1C(=O)/C(=C/c2ccc(Br)o2)SC1=S,2.1%
5,Cc1ccc(/C=N/n2c(-c3cccnc3)n[nH]c2=S)o1,6.56%
6,COc1ccc(SCCN2CCN(CC(C)C)CCC2=O)cc1,-42.9%
7,Nc1nc(Nc2ccccc2F)nc(NCc2ccco2)c1[N+](=O)[O-],-6.47%
8,COc1ccc(OCC(=O)NC(=S)Nc2ccc(N3CCOCC3)c(Cl)c2)cc1,1.48%
9,Cc1cc(NC(=O)c2cc(-c3ccccc3Cl)nc3ccccc23)no1,-0.229%
10,c1ccc2c(c1)CCN(c1ncnc3nc[nH]c13)C2,12.1%
11,COc1ccc(OC)c(C(C)NC(=O)c2ccc(Br)cc2)c1 (centres unmarked),0.479%
12,Cc1cccc(NC(=O)C2(c3cccs3)CCOCC2)c1,-3.86%
13,Oc1cccnc1Sc1cccc(C(F)(F)F)c1,18.6%
14,CC[C@@H](C(=O)n1nc(C)cc1C)[C@H](NS(=O)(=O)c1ccc(C)cc1)c1ccccc1,6.96%
15,NC(=O)C(CC(=O)O)NC(=O)[C@@H]1CCCNc2c(I)cc([N+](=O)[O-])cc2C(=O)N[C@@H](CO)C(=O)N[C@@H](Cc2ccc(O)cc2)C(=O)N1 (some centres unmarked),8.02%
16,CCC(CC)C(=O)c1c[nH]c(C(=O)N2CCN(c3ccc(OC)cc3)CC2)c1,-0.858%
17,Cc1ccccc1OCC(O)CN1CCCCC1.Cl (centres unmarked),9.68%
18,Cc1ccccc1S(=O)(=O)Cc1ccc(C(=O)NCCN2CCCCC2C)o1 (centres unmarked),-39.3%
19,CN1CCN(C(=O)CCN2C(=O)c3ccccc3C2=O)CC1,14.7%

row,Compound,"hERG current change (%, negative = inhibition) at 10uM"
1,Cc1cc(OC(=O)c2ccc(S(=O)(=O)N3CCCC3)cc2)c([N+](=O)[O-])c(=O)[nH]1,6.47%
2,COc1cc(/C=C/C(=O)NC(C)(C)C)ccc1OCc1ccccc1,6.47%
3,CSc1c(CC(=O)NCCCO)n(Cc2ccccc2)c2ccccc12,-6.25%
4,CCOC(=O)c1ccc(NC(=O)Nc2ncc(Cl)cc2Cl)cc1,20.3%
5,COc1ccc(C2=NS(=O)(=O)N(C)C(C(=O)Nc3ccc(C)cc3)=C2)cc1,-2.89%
6,Cc1ccc(CNC(=O)c2nnn(CC(=O)Nc3cc(C)cc(C)c3)c2N)cc1,8.73%
7,COc1ccc(N2CCN(C(=O)c3csc4ccccc34)CC2)cc1,-7.41%
8,O=C(CSc1nc2ccccc2c2c1CCCC2)N1CCOCC1,-22.1%
9,CC(C)c1nc(=S)c2ccccc2[nH]1,-17.1%
10,CCCN(CC1COc2ccccc2O1)C(=S)Nc1ccc(C)cc1 (centres unmarked),-11.9%
11,O=C(COC(=O)c1ccc2c(c1Cl)C(=O)c1ccccc1C2=O)NC1CCCCC1,17.4%
12,Cc1cccc(-n2c(N)cc(=O)nc2SCC(=O)Nc2cc(C)on2)c1,-3.48%
13,CCOC(=O)N(C)S(=O)(=O)c1ccccc1[N+](=O)[O-],11.1%
14,CCn1c(SCC(=O)N2c3ccccc3Sc3ccccc32)nnc1-c1ccco1,-20.8%
15,O=C(Nc1ccccc1)N1CCCN(Cc2ccccc2F)C1,-8.48%
16,Cc1ccc(Cn2nnc3c(=O)[nH]c(C(=O)NCc4ccco4)nc32)cc1,-19%
17,Cc1ccc(NC(=S)NC2CC3CCCC(C2)N3Cc2cccs2)cc1 (centres unmarked),-56.5%
18,CCC(=O)Nc1ccc(S(=O)(=O)Nc2c(C)nc3nc[nH]n3c2=O)cc1,1.56%
19,O=C(CCCn1cncn1)N1CCCC(Nc2ccc(F)cc2)C1 (centres unmarked),11.4%

row,Compound,"hERG current change (%, negative = inhibition) at 10uM"
1,CC(O)CSc1nc2c(c(=O)n(C)c(=O)n2C)n1CCCc1ccccc1 (centres unmarked),-18.2%
2,CSc1sc(-c2n[nH]c(=S)n2C)c2c1C=CCC2,-56.8%
3,Cc1ccc(C(=O)N/C(=C\c2ccco2)C(=O)NCCCn2ccnc2)cc1,-64.3%
4,COc1ccc(C(=O)N/C(=C\c2cn(C)c3ccccc23)C(=O)OCCN(C)C)cc1,-25.1%
5,O=C(Cn1nnc2ccccc2c1=O)NCc1ccco1,4.57%
6,Cl.OC(COCc1ccccc1)CN1CCN(Cc2ccc3c(c2)OCO3)CC1 (centres unmarked),-45%
7,O=C(CCCCCn1c(=S)[nH]c2cc3c(cc2c1=O)OCO3)N1CCN(C2CCCCC2)CC1,-2.7%
8,CCCCN(C(=S)Nc1cccc(C)c1C)c1c(N)n(CCC)c(=O)[nH]c1=O,9.45%
9,Cc1ccc(N(C)C(=O)Oc2cccc3ccc(C)nc23)cc1,-6.89%
10,CCCCNC(=S)N(C)/N=C/c1c(F)cccc1F,0.733%
11,O=C(C1CCCCC1)N(Cc1ccccc1)c1ccccn1,1.25%
12,COC(=O)CCC(=O)OC1(C)C(=O)C2=CN(c3ccc(OC)cc3)C(c3ccc(OC)cc3)=CC2=C(Br)C1=O (centres unmarked),-9.54%
13,COCCCNC(=O)C1CCC(CNS(=O)(=O)c2ccc(OC)cc2)CC1 (centres unmarked),1.4%
14,CCN(CC)C(=O)CN1C(=O)/C(=C/c2ccccc2)SC1=S,-3.27%
15,CC(C)CN(C(=O)CN1C(=O)C2CCCCC2C1=O)c1c(N)n(Cc2ccccc2)c(=O)[nH]c1=O (centres unmarked),-0.636%
16,CCC(=NCCc1ccccc1)C1=C(O)CCC1=O,14.8%
17,CC(=O)N/C(=N\OCc1ccccc1Cl)c1nonc1NC(C)=O,-11%
18,CCN(CC)S(=O)(=O)c1ccc(C(=O)NC(C)(C)C)cc1,19.1%
